Test results as given in publication PMC5431898.
No constants are given. Whether binding was seen depends on the method and setting. In cells and extracts the contact can be indirect. Some entries that bind do so weakly or less than the wild type. For part of these data: Sequences can lack the tags named with a protein.

Chains of the proteins cited; added tags and fusions are not shown.
UniProt Q94BT6: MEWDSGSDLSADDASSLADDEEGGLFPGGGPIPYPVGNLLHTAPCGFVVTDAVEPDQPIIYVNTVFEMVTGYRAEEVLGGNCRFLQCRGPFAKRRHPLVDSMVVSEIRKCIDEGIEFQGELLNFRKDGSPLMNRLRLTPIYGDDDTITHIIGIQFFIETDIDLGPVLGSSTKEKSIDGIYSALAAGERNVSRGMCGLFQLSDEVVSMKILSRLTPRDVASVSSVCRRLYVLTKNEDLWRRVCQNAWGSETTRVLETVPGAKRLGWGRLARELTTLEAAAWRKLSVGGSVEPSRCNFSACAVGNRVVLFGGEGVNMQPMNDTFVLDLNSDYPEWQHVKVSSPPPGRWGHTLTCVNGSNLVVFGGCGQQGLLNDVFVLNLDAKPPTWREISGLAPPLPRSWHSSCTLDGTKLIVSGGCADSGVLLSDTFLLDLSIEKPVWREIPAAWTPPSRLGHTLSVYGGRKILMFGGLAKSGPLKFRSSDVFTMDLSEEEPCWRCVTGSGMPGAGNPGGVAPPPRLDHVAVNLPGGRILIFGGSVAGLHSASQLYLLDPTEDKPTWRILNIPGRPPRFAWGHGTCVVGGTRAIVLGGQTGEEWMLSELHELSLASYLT

Experiments:
[1] = target: T1, GI-TAP (35S:GI-TAP, N. benthamiana) (Arabidopsis) (UniProt Q9SQI2); assay: co-IP; sequential co-IP from N. benthamiana co-expressing GI-TAP, HSP90-HA and ZTL-GFP: first IP on IgG-agarose (GI-TAP), release with 3C protease, second IP with anti-GFP (ZTL-GFP), detection of HSP90-HA
T1 sequence: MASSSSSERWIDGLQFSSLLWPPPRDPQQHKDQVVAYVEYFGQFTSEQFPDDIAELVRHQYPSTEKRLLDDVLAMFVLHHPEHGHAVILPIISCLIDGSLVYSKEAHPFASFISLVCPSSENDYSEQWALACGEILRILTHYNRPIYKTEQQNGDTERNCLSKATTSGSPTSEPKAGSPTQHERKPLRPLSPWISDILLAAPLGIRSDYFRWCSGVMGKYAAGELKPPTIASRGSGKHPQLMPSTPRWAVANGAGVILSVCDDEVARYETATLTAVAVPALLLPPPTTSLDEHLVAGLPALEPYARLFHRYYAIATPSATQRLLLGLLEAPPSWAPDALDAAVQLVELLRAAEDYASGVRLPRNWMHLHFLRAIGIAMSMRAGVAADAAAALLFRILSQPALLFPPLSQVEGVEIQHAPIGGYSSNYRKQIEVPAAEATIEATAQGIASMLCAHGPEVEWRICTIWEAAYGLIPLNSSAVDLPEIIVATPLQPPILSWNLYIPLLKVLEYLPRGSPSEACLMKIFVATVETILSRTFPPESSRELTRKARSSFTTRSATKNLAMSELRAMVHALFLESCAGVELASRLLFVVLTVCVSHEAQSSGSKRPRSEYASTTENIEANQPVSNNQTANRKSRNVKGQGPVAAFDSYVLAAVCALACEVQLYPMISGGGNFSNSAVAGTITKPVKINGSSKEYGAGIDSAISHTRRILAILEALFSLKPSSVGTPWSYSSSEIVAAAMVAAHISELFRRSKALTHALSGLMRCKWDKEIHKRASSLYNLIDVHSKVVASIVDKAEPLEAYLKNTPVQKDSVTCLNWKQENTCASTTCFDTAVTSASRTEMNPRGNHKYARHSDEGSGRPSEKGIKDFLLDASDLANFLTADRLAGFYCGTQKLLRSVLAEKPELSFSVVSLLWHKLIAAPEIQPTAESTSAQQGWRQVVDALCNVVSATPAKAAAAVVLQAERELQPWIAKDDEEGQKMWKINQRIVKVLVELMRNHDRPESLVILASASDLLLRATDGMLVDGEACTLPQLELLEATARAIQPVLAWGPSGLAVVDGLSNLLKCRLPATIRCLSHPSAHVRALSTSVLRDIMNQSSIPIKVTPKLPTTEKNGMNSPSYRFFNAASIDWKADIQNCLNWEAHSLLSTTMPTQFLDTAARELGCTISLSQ

[2] = target: T2, HA-GI^N (GI N-terminal polypeptide, aa 1-858) (Arabidopsis) (UniProt Q9SQI2); assay: co-IP; HA-tagged GI FL, GI^N or GI^C co-infiltrated with GFP-tagged ZTL WT or ZTL^C82A into N. benthamiana leaves; IP with HA antibody (3F10), blots with anti-HA and anti-GFP
T2 sequence: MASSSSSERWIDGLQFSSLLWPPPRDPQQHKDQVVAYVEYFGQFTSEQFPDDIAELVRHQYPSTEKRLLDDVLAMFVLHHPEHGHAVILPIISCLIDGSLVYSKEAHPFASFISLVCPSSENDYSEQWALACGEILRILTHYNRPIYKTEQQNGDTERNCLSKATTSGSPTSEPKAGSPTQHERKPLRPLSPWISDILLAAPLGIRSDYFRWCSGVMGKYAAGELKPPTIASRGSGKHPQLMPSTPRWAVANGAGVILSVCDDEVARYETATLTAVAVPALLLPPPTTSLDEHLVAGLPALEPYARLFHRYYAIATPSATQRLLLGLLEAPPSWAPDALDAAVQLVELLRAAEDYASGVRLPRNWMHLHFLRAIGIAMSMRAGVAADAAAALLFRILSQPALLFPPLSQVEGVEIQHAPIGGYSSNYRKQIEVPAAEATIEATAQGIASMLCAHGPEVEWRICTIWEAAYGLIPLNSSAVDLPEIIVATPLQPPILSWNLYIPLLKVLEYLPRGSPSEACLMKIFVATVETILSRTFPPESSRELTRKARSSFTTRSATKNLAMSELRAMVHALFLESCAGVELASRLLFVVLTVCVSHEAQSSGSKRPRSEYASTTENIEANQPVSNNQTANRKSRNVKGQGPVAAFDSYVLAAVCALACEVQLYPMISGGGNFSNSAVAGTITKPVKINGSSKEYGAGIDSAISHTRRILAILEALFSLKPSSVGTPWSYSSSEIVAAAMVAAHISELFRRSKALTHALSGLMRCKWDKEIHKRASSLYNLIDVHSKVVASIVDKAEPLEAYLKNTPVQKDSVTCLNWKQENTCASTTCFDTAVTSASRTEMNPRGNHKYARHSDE

[3] = target: T3, HA-GI^C (C-terminal region of GI, aa 920-1173) (Arabidopsis) (UniProt Q9SQI2); assay: as above
T3 sequence: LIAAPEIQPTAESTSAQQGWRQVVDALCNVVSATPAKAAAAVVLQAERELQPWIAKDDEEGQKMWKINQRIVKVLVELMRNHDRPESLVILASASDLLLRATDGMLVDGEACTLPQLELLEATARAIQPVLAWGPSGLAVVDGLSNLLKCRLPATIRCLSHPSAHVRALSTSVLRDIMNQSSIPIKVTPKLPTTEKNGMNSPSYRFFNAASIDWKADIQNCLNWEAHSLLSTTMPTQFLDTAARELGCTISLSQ

[4] = target: T4, HA-tagged GI full length (FL) (Arabidopsis) (UniProt Q9SQI2); assay: as above
T4 sequence: T1 sequence

[5] = target: T5, GI-HA (transient expression in N. benthamiana) (Arabidopsis) (UniProt Q9SQI2); assay: co-IP; transient co-expression of ZTL-LUC variants with GI-HA in N. benthamiana; antibodies not told
T5 sequence: T1 sequence

[6] = target: T6, GI-TAP (GI:GI-TAP transgenic Arabidopsis) (Arabidopsis) (UniProt Q9SQI2); assay: co-IP; 10-d-old GI:GI-TAP Arabidopsis seedlings harvested at ZT13, in vivo protein cross-linking; IP with anti-PAP antibody, blots with anti-HSP90, anti-ZTL and anti-PAP; untransformed Col as control
T6 sequence: T1 sequence

Substance: ZTL-GFP (from UniProt Q94BT6 1-609)
- binding [1]: binds
- binding [2]: binds
- binding [3]: no binding
- binding [4]: binds

Substance: ZTL^WT-LUC (from UniProt Q94BT6 1-609)
- binding [5]: binds

Substance: endogenous ZTL (Arabidopsis) (from UniProt Q94BT6 1-609)
- binding [6]: binds
